# Assay results taken from the supplement of paper PMC10037445.
# Whole data set: some 2,900 compounds, median “IRF Lucia reporter activity, fold change vs agonist alone” near 0.9, cut for the highest 2% near 2.8. This is one part of the list.
# Key:
# RAW-Dual [1] = experiment: IRF Lucia reporter activity, fold change vs agonist alone; higher = enhanced IRF activity; settings: library stock concentration (final ~1000-fold dilution): 10 mM, agonist: MPLA (TLR4) […]
# Procedure, shortened: (§1)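 Library stock was pin-tooled at 50 nL into 384-well plates of RAW-Dual macrophages (50,000 cells/well, DMEM), followed 1 h later by a PRR agonist, and the cells were kept at 37 °C, 5% CO2. Supernatant collected after 20 hours was read for IRF by QuantiLuc luminescence and for NF-κB by QuantiBlue absorbance at 620 nm. Reporter activity is fold change over agonist-alone wells, and a well counted as cytotoxic when its IncuCyte confluency was below 70% of agonist controls in both mask sets.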
# RAW-Dual [2] = experiment: IRF Lucia reporter activity, fold change vs agonist alone; cytotoxicity flag (confluency mask): not cytotoxic; higher = enhanced IRF activity
# Procedure, shortened: as §1
# RAW-Dual [3] = experiment: IRF Lucia reporter activity, fold change vs agonist alone; cytotoxicity flag (confluency mask): cytotoxic (confluency <70% of control); higher = enhanced IRF activity
# Procedure, shortened: as §1
# [4] = cytotoxicity flag (confluency mask): not cytotoxic
# [5] = agonist: 3'3'-cGAMP (STING) 10 ug/mL
structure (smiles),measurement,setting,value
Cc1nnc(SCC2=C(C(=O)O)N3C(=O)C(NC(=O)Cn4cnnn4)C3SC2)s1 (stereo not drawn),IRF Lucia reporter activity,RAW-Dual [1]; [4],1.07
Cc1nnc(SCC2=C(C(=O)O)N3C(=O)C(NC(=O)Cn4cnnn4)C3SC2)s1 (stereo not drawn) (library stock concentration (final ~1000-fold dilution): 10 mM),IRF Lucia reporter activity,RAW-Dual [2]; [5],1.08
same,IRF Lucia reporter activity,RAW-Dual [2]; agonist: LPS (TLR4) 0.1 ug/mL,1.26
Cc1cccc(C#Cc2ccccc2)n1,IRF Lucia reporter activity,RAW-Dual [1]; [4],1.33
Cc1cccc(C#Cc2ccccc2)n1 (library stock concentration (final ~1000-fold dilution): 10 mM),IRF Lucia reporter activity,RAW-Dual [2]; [5],1.01
same,IRF Lucia reporter activity,RAW-Dual [2]; agonist: LPS (TLR4) 0.1 ug/mL,1.08
Nc1nc(NCCc2ccc(O)cc2)nc2nc(-c3ccco3)nn12 (library stock concentration (final ~1000-fold dilution): 10 mM),IRF Lucia reporter activity,RAW-Dual [2]; [5],0.563
same,IRF Lucia reporter activity,RAW-Dual [2]; agonist: LPS (TLR4) 0.1 ug/mL,0.973
O=C(/C=C/c1ccc(CN(CCO)CCc2c[nH]c3ccccc23)cc1)NO (library stock concentration (final ~1000-fold dilution): 10 mM),IRF Lucia reporter activity,RAW-Dual [3]; [5],0.0242
same,IRF Lucia reporter activity,RAW-Dual [3]; agonist: LPS (TLR4) 0.1 ug/mL,0.713
O=C(/C=C/c1ccc(CN(CCO)CCc2c[nH]c3ccccc23)cc1)NO,IRF Lucia reporter activity,RAW-Dual [1]; cytotoxicity flag (confluency mask): cytotoxic (confluency <70% of control),0.454
Cc1nc(-c2cn3c(n2)-c2ccc(-c4cnn(C(C)(C)C(N)=O)c4)cc2OCC3)n(C(C)C)n1 (library stock concentration (final ~1000-fold dilution): 10 mM),IRF Lucia reporter activity,RAW-Dual [2]; [5],0.346
same,IRF Lucia reporter activity,RAW-Dual [2]; agonist: LPS (TLR4) 0.1 ug/mL,2.29
Cc1nc(-c2cn3c(n2)-c2ccc(-c4cnn(C(C)(C)C(N)=O)c4)cc2OCC3)n(C(C)C)n1,IRF Lucia reporter activity,RAW-Dual [1]; [4],1.98
COc1ccccc1OCCN.Cl (library stock concentration (final ~1000-fold dilution): 10 mM),IRF Lucia reporter activity,RAW-Dual [2]; [5],0.942
same,IRF Lucia reporter activity,RAW-Dual [2]; agonist: LPS (TLR4) 0.1 ug/mL,1.2
COc1ccccc1OCCN.Cl,IRF Lucia reporter activity,RAW-Dual [1]; [4],0.923
N#Cc1cc(-c2n[nH]c(-c3ccncc3)n2)ccn1 (library stock concentration (final ~1000-fold dilution): 10 mM),IRF Lucia reporter activity,RAW-Dual [2]; [5],1.07
same,IRF Lucia reporter activity,RAW-Dual [2]; agonist: LPS (TLR4) 0.1 ug/mL,1.08
N#Cc1cc(-c2n[nH]c(-c3ccncc3)n2)ccn1,IRF Lucia reporter activity,RAW-Dual [1]; [4],1.06
COc1ccc(S(=O)(=O)N(C(C)=O)c2ccccc2/C=C/c2cc[n+]([O-])cc2)cc1 (library stock concentration (final ~1000-fold dilution): 10 mM),IRF Lucia reporter activity,RAW-Dual [2]; [5],0.48
same,IRF Lucia reporter activity,RAW-Dual [2]; agonist: LPS (TLR4) 0.1 ug/mL,0.654
COc1ccc(S(=O)(=O)N(C(C)=O)c2ccccc2/C=C/c2cc[n+]([O-])cc2)cc1,IRF Lucia reporter activity,RAW-Dual [1]; [4],0.674
Cc1c(F)cc(C(=O)NC2CC2)cc1-c1ccc(C(=O)NCC(C)(C)C)cn1 (library stock concentration (final ~1000-fold dilution): 10 mM),IRF Lucia reporter activity,RAW-Dual [2]; [5],0.508
same,IRF Lucia reporter activity,RAW-Dual [2]; agonist: LPS (TLR4) 0.1 ug/mL,0.805
Cc1c(F)cc(C(=O)NC2CC2)cc1-c1ccc(C(=O)NCC(C)(C)C)cn1,IRF Lucia reporter activity,RAW-Dual [1]; [4],1.12
CNC(=O)C(Cc1c[nH]c2ccccc12)NC(=O)C(CC(=O)NO)CC(C)C (stereo not drawn) (library stock concentration (final ~1000-fold dilution): 10 mM),IRF Lucia reporter activity,RAW-Dual [2]; [5],0.8
same,IRF Lucia reporter activity,RAW-Dual [2]; agonist: LPS (TLR4) 0.1 ug/mL,1.08
CNC(=O)C(Cc1c[nH]c2ccccc12)NC(=O)C(CC(=O)NO)CC(C)C (stereo not drawn),IRF Lucia reporter activity,RAW-Dual [1]; [4],0.969
O=C1Nc2nc(-c3c(O)cccc3OCC3CC3)cc([C@@H]3CCCNC3)c2CO1 (library stock concentration (final ~1000-fold dilution): 10 mM),IRF Lucia reporter activity,RAW-Dual [3]; [5],0.109
same,IRF Lucia reporter activity,RAW-Dual [3]; agonist: LPS (TLR4) 0.1 ug/mL,0.104
O=C(NC(CO)C(O)c1ccc([N+](=O)[O-])cc1)C(Cl)Cl (stereo not drawn) (library stock concentration (final ~1000-fold dilution): 10 mM),IRF Lucia reporter activity,RAW-Dual [2]; [5],1.09
same,IRF Lucia reporter activity,RAW-Dual [2]; agonist: LPS (TLR4) 0.1 ug/mL,0.984
O=C(NC(CO)C(O)c1ccc([N+](=O)[O-])cc1)C(Cl)Cl (stereo not drawn),IRF Lucia reporter activity,RAW-Dual [1]; [4],0.97
NC1C(O)OC(CO)C(O)C1O (stereo not drawn) (library stock concentration (final ~1000-fold dilution): 10 mM),IRF Lucia reporter activity,RAW-Dual [2]; [5],0.143
same,IRF Lucia reporter activity,RAW-Dual [2]; agonist: LPS (TLR4) 0.1 ug/mL,0.267
CC(C)c1cc(-c2ccc(F)c3ccccc23)nc(N)n1,IRF Lucia reporter activity,RAW-Dual [1]; [4],0.967
CC(C)c1cc(-c2ccc(F)c3ccccc23)nc(N)n1 (library stock concentration (final ~1000-fold dilution): 10 mM),IRF Lucia reporter activity,RAW-Dual [2]; [5],1.11
same,IRF Lucia reporter activity,RAW-Dual [2]; agonist: LPS (TLR4) 0.1 ug/mL,0.742
Cc1cc(C)c(/C=C2\C(=O)Nc3ccccc32)[nH]1,IRF Lucia reporter activity,RAW-Dual [1]; [4],0.781
Cc1cc(C)c(/C=C2\C(=O)Nc3ccccc32)[nH]1 (library stock concentration (final ~1000-fold dilution): 10 mM),IRF Lucia reporter activity,RAW-Dual [2]; [5],0.77
same,IRF Lucia reporter activity,RAW-Dual [2]; agonist: LPS (TLR4) 0.1 ug/mL,0.578
CN1CCC(=C2c3ccccc3CC(=O)c3sccc32)CC1.O=C(O)/C=C/C(=O)O (library stock concentration (final ~1000-fold dilution): 10 mM),IRF Lucia reporter activity,RAW-Dual [2]; [5],0.948
same,IRF Lucia reporter activity,RAW-Dual [2]; agonist: LPS (TLR4) 0.1 ug/mL,0.954
CN1CCC(=C2c3ccccc3CC(=O)c3sccc32)CC1.O=C(O)/C=C/C(=O)O,IRF Lucia reporter activity,RAW-Dual [1]; [4],0.92
O=c1cc(O)c(Cl)c[nH]1,IRF Lucia reporter activity,RAW-Dual [1]; [4],0.918
O=c1cc(O)c(Cl)c[nH]1 (library stock concentration (final ~1000-fold dilution): 10 mM),IRF Lucia reporter activity,RAW-Dual [2]; [5],1.06
same,IRF Lucia reporter activity,RAW-Dual [2]; agonist: LPS (TLR4) 0.1 ug/mL,0.923
